Results reported in patent US9199944B2 (priority 2012, dated 2015).

Key:
Assay in all cases: cells
[1] = system: H3122 (lung cancer cells); details: Homo sapiens, NCI-H3122, 72 h, read-out: H3122CP GI50 (μM)
[2] = system: H1993 (lung cancer cells); details: Homo sapiens, NCI-H1993, 72 h, read-out: H1993CP GI50 (μM)
[3] = system: Hs746T (stomach cancer cells); details: Homo sapiens, 72 h, read-out: Hs746TCP GI50 (μM)
[4] = system: H2228 (lung cancer cells); details: Homo sapiens, NCI-H2228, 72 h, read-out: H2228CP GI50 (μM)

For `CCNC(=O)N1CCN(c2ccc(Nc3ncc(C(F)(F)F)c(Nc4ccc(N5CCN(C(C)=O)CC5)cc4OC)n3)c(OC)c2)CC1` [Example 64, 4-(4-((4-((4-(4-acetylpiperazin-1-yl)-2-methoxyphenyl)amino)-5-(trifluoromethyl)pyrimidin-2-yl)amino)-3-methoxyphenyl)-N-ethylpiperazin-1-carboxyamide], which GI50 [1] is on record?
Its GI50 is 0.018 µM.

And the GI50 [2]?
The GI50 was 5.47 µM.

And the GI50 [3]?
Its GI50 is 2.14 µM.

And the GI50 [4]?
The GI50 was 0.38 µM.

With `CCC(=O)N1CCN(c2ccc(Nc3nc(Nc4ccc(N5CCN(C(C)=O)CC5)cc4OC)ncc3Cl)c(OC)c2)CC1` [Example 22, 1-(4-(4-(2-(4-(4-acetylpiperazin-1-yl)-2-methoxyphenylamino)-5-chloropyrimidin-4-ylamino)-3-methoxyphenyl)piperazin-1-yl)propan-1-one] as the compound, how does the GI50 [1] read?
Its GI50 is 0.126 µM.

What about the GI50 [2] of the same compound?
The GI50 was 9.91 µM.

And the GI50 [3]?
The GI50 was 3.42 µM.

What about the GI50 [4] of the same compound?
Its GI50 is 0.174 µM.

With `COc1cc(N2CCN(C(C)=O)CC2)ccc1Nc1ncc(F)c(Nc2ccc(N3CCN(CCO)CC3)cc2OC(F)F)n1` [Example 42, 1-(4-(4-(4-(2-(difluoromethoxy)-4-(4-(2-hydroxyethyl)piperazin-1-yl)phenylamino)-5-fluoropyrimidin-2-ylamino)-3-methoxyphenyl)piperazin-1-yl)ethanone] as the compound, how does the GI50 [1] read?
Its GI50 is 0.032 µM.

And the GI50 [2]?
The GI50 was > 10 µM.

What about the GI50 [3] of the same compound?
The GI50 was 9.68 µM.

For `COc1cc(N2CCN(C(C)=O)CC2)ccc1Nc1ncc(Cl)c(Nc2ccc(N3CCNCC3)cc2F)n1` [Example 81, 1-(4-(4-((5-chloro-4-((2-fluoro-4-(piperazin-1-yl)phenyl)amino)pyrimidin-2-yl)amino)-3-methoxyphenyl)piperazin-1-yl)ethanone], which GI50 [2] is on record?
Its GI50 is 4.02 µM.

What about the GI50 [3] of the same compound?
The GI50 was 0.96 µM.

And the GI50 [4]?
The GI50 was 0.37 µM.

How did the GI50 [3] turn out when `C[C@@H](Oc1cc(-c2cnn(C3CCNCC3)c2)cnc1N)c1c(Cl)ccc(F)c1Cl` [Crizotinib, reference compound] was run?
The GI50 was 0.00012 µM.

And the GI50 [4]?
The GI50 was 0.851 µM.

Which GI50 [2] does the source give for `COc1cc(N2CCN(C(C)=O)CC2)ccc1Nc1ncc(C(F)(F)F)c(Nc2ccc(N3CCN(CCO)CC3)cc2OC)n1` [Example 61, 1-(4-(4-((4-((4-(4-(2-hydroxyethyl)piperazin-1-yl)-2-methoxyphenyl)amino)-5-(trifluoromethyl)pyrimidin-2-yl)amino)-3-methoxyphenyl)piperazin-1-yl)ethanone] here?
Its GI50 is > 10 µM.

And the GI50 [3]?
Its GI50 is 2.51 µM.

And the GI50 [4]?
Its GI50 is 0.116 µM.

With `COc1cc(N2CCN(C(C)=O)CC2)ccc1Nc1ncc(F)c(Nc2ccc(N3CCN(CCO)CC3)cc2OC)n1` [Example 28, 1-(4-(4-(5-fluoro-4-(4-(4-(2-hydroxyethyl)piperazin-1-yl)-2-methoxyphenylamino)pyrimidin-2-ylamino)-3-methoxyphenyl)piperazin-1-yl)ethanone] as the compound, how does the GI50 [2] read?
Its GI50 is 4.28 µM.

What about the GI50 [3] of the same compound?
Its GI50 is > 10 µM.

What about the GI50 [4] of the same compound?
The GI50 was 0.112 µM.

How did the GI50 [2] turn out when `COc1cc(N2CCN(C(C)=O)CC2)ccc1Nc1ncc(Cl)c(Nc2ccc(N3CCN(CCO)CC3)cc2OC)n1` [Example 16, 1-(4-(4-(5-chloro-4-(4-(4-(2-hydroxyethyl)piperazin-1-yl)-2-methoxyphenylamino)pyrimidin-2-ylamino)-3-methoxyphenyl)piperazin-1-yl)ethanone] was run?
The GI50 was 6.73 µM.

And the GI50 [3]?
Its GI50 is 3.69 µM.

What about the GI50 [4] of the same compound?
Its GI50 is 0.488 µM.

How did the GI50 [2] turn out when `COc1cc(N2CCN(C(C)=O)CC2)ccc1Nc1ncc(Cl)c(Nc2ccc(N3CCN(S(N)(=O)=O)CC3)cc2OC)n1` [Example 21, 4-(4-(2-(4-(4-acetylpiperazin-1-yl)-2-methoxyphenylamino)-5-chloropyrimidin-4-ylamino)-3-methoxyphenyl)piperazin-1-sulfonamide] was run?
The GI50 was 3.44 µM.

And the GI50 [3]?
The GI50 was 3.37 µM.

What about the GI50 [4] of the same compound?
The GI50 was 0.098 µM.

What does the source list for `COc1cc(N2CCN(S(C)(=O)=O)CC2)ccc1Nc1ncc(C(F)(F)F)c(Nc2ccc(N3CCN(C(C)=O)CC3)cc2OC)n1` [Example 67, 1-(4-(3-methoxy-4-((2-((2-methoxy-4-(4-(methylsulfonyl)piperazin-1-yl)phenyl)amino)-5-(trifluoromethyl)pyrimidin-4-yl)amino)phenyl)piperazin-1-yl)ethanone]?
GI50 [2]: > 10 µM; GI50 [3]: 1.73 µM; GI50 [4]: 0.281 µM
